In publication PMC12136788:
Some of the results follow.

T1: UNK ZnF1-3 (human, UniProt Q9C0B0 31-174)
T1 sequence: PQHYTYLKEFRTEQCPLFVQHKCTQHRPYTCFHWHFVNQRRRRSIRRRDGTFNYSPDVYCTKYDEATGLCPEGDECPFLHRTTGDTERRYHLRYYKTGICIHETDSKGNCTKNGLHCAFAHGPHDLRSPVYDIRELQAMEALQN

B1: chr4:77932910:77932911:+_ENSG00000138758_ENST00000541121|hu_hu|motif|central (ssRNA)
RNA: GGGAGUUCUACAGUCCGACGAUCUUUAAUCUUCAAUUCCUCUUGCAGGUAGGCCUCGAACUGGGCAUCAAUAUAUUCGGCGGUCGGCUUAUAGCUGUCAUCUUUAUUUAUCUGGUCUCCAAAUCCCACGGUGUCAACAAUGGUCAACAGAGGAUUGAGCAUCA
B2: 107648809_107648929_2328_3pUTR_ENSMUSG00000033685_ENSMUST00000126534|mouse|control|control (ssRNA)
RNA: GGGAGUUCUACAGUCCGACGAUCCUGACUGAAACACCCUGACAAUCUAAGCGUUGACUGGUCCCCAGUCUUGGGGGAAAAGGUAAGGCUUCCAUCAGAAAGGCUCUUCAGAGGUCGGGUGCUACAGGUGGCUGUAAUCCCAGCCAACAGAGGAUUGAGCAUCA
B3: chr6:41757443:41757444:+_ENSG00000214736_ENST00000398881|hu_mus|hu_hu_hu_mus_False|78_88 (ssRNA)
RNA: GGGAGUUCUACAGUCCGACGAUCGAACCGUGCAGAGGCAACAUCUCGGAAUUCUGCGUGGACUCAAGGGGCAGUGGGGGGGGGUUCAGGCAAGGAGAGGGAGUCAACUUCAGCUGCCACUCAGGUAGGAUCUUGUGGUCACAGCAACAGAGGAUUGAGCAUCA
B4: chr2:135163197:135163198:+_ENSMUSG00000051177_ENSMUST00000110116|mus_mus|FALSE|FALSE (ssRNA)
RNA: GGGAGUUCUACAGUCCGACGAUCGAAGAGUUGAGGCAUGUAGUUGGAUGAAUCCACACGUGUUCCCUUGGGAUAUAUCCUGCUAAGUUGCAUCUUGUUGUAUUCUACAAAUUCCACCGGAGACUUUGUAAGUUGUUCAAGUCCCAACAGAGGAUUGAGCAUCA
B5: 17198956_17206531_622_3pUTR_ENSG00000003987_ENST00000180173|human|control|control (ssRNA)
RNA: GGGAGUUCUACAGUCCGACGAUCCACCGGGCACUGAAGCCGGACAGGGGCUGGCUGCUCCGGCAGAUGGAGGCGUGGUUAUCUUUAUAAUAGUAAGAAAGGACAGGAAAUCGCCGUCUACUCCGGAAUUUGGAACUCCCCACUCAACAGAGGAUUGAGCAUCA
B6: chr4:33586012:33586013:+_ENSMUSG00000028274_ENSMUST00000108153|mus_hu|FALSE|FALSE (ssRNA)
RNA: GGGAGUUCUACAGUCCGACGAUCUGAGAUGCUGUUACACACAGCCAUGGCAGUGUUGUAGGCAUUAGGAAAACUUUUGUCUGUUCUCUGUCUCAUGAAGACCCAGCUGUUGUUCUCAAAUUUGCAUUCUAUAAUUUUGUUGUCCAACAGAGGAUUGAGCAUCA
B7: 63786348_63789542_463_CDS_ENSMUSG00000027823_ENSMUST00000029405|mouse|control|control (ssRNA)
RNA: GGGAGUUCUACAGUCCGACGAUCUCCAAAGACUUUAUUCAUCAUCUGCAUGCCAUAGCAAAUUCCUAGAAUAGGCUUGCCAAUGGUAAAUAUUGCUGGAUCAAACCAGGGAGCAUCCUCUGCAUACACAGAAUUAGGUCCUCCCAACAGAGGAUUGAGCAUCA
B8: chr19:8913615:8913616:-_ENSMUSG00000071658_ENSMUST00000096259|mus_mus|motif|central (ssRNA)
RNA: GGGAGUUCUACAGUCCGACGAUCGAGGGGGCACCAAACCCUGCCUCAGAUAGGUGCCCCACCCUGCCAGGACUUGGAGCGGAAAAUAUCCGUAGCACUGACAGUUAAUGCAGAGAAGGUCACUAGAGAUGCUCAGACGAGAUCCAACAGAGGAUUGAGCAUCA
B9: chr12:120565580:120565581:-_ENSG00000089154_ENST00000300648|hu_mus|FALSE|FALSE (ssRNA)
RNA: GGGAGUUCUACAGUCCGACGAUCGGGAGGAGGCGAUCUUCAGUUGUGUGUGGGUUGGAUUUAAGGCUUUGGCUCUGGUCGCUUGAUGUACUAAAAUACUUUCUGGGAAUGCCAUCUCCUGAGCUCCCCCUUGGAAUAAAAGUACAACAGAGGAUUGAGCAUCA
B10: 100592288_100605063_171_5pUTR_ENSMUSG00000023032_ENSMUST00000023776|mouse|control|control (ssRNA)
RNA: GGGAGUUCUACAGUCCGACGAUCCCUCUGAUAGCUGAGGACGCCGUCCGGCUCGUUGCUCCCGGCGGGCAUGGCCGGGCGGAGCCUGGUCUCGCCGGUAGGUUCCAGGUUGAGCUGCAGCAGUCCGCGCCCUGUAGUCCAGUGCAACAGAGGAUUGAGCAUCA
B11: chr14:66974463:66974464:+_ENSMUSG00000022044_ENSMUST00000074523|mus_hu|mus_mus_mus_hu_False|28_68 (ssRNA)
RNA: GGGAGUUCUACAGUCCGACGAUCUUGUAGGACGACUUAUUCAGGGGAUCGGCCAGGAAGCAGGAGCAGAACAGAGACACCAGCGGGAGCUCCUUCAUCUUCUCUUUAUAGGCUGCAAGGGUCAUGUUUCUGGGAUCUGGUGGCCAACAGAGGAUUGAGCAUCA
B12: chr8:8618132:8618133:-_ENSMUSG00000001300_ENSMUST00000001319|mus_hu|FALSE|FALSE (ssRNA)
RNA: GGGAGUUCUACAGUCCGACGAUCCUUCAAACAAAGGGACAGUUGGUAGAUUGUCAUAUUCUGCACCAGACACAAAACAGACGCACAGAACACUUUUCAAUUGGUUGCAGGGAACUCUUUUAUCAAUUCAUCUGAUUUUUCACACAACAGAGGAUUGAGCAUCA
B13: chr3:176743309:176743310:-_ENSG00000177565_ENST00000430069|hu_mus|FALSE|FALSE (ssRNA)
RNA: GGGAGUUCUACAGUCCGACGAUCUGUACACAUUCAUAGUCGGUCCAUGGCUUCCAACUAGUAACGCUAUUUCCGAAGGUCUAAGACACAAACUGAACCGUCCGAAGCACUGGCUCCAACUUUGUCUCCUGCUGCGUUCCAGCACAACAGAGGAUUGAGCAUCA
B14: 163922485_163922605_671_3pUTR_ENSMUSG00000018209_ENSMUST00000018353|mouse|control|control (ssRNA)
RNA: GGGAGUUCUACAGUCCGACGAUCUCAGCCAUUUCUAUGGCAGUUAUUCCCAGAGACCAGAUGUCUGCCACACAGUUGUACCCAAUUUCCUGAAUAACUUCAGGAGCCAUCCAAAACGGGGUCCCUAUUACUGUAUUCCUCUUUCAACAGAGGAUUGAGCAUCA
B15: chr13:98016622:98016623:+_ENSMUSG00000041773_ENSMUST00000041623|mus_mus|motif|central (ssRNA)
RNA: GGGAGUUCUACAGUCCGACGAUCGACGAAUGCAGUAGGGAUCAGAGAGUAGGGAACAGUGGUUAUGCUGUUCCACACAUCGGAAGUUGGGUCGUAACAGUCCAAAGUCUUGCAGCGCUGAAUGCCGAAGUACCCUCCAACUACCAACAGAGGAUUGAGCAUCA
B16: chr14:78183846:78183847:+_ENSG00000119705_ENST00000557342|hu_hu|hu_hu_hu_mus_False|48_108 (ssRNA)
RNA: GGGAGUUCUACAGUCCGACGAUCUCUGUCUCAAAAAUCUUCAUCAGAUGUUUGAGCUCCGUGCAAAGCCUUUGCUCUUUGAGCUUGAACCUGGACCUAUGGGAGGGAAAGCACUGUCAGAAAAGGUAAUUUUUUUUUUAAAGACAACAGAGGAUUGAGCAUCA
B17: 74719947_74720067_766_CDS_ENSG00000070495_ENST00000397625|human|control|control (ssRNA)
RNA: GGGAGUUCUACAGUCCGACGAUCAUUAAACCAGGUAAUAGCUUCGUCUUGCUGGUUCCCUCCUUCGUCUCGGGUCACUUUGAUGAGUUCCCUGGGAGUGCUGGUAGGAAACAGGCACCAGCGCUUGUGGCCCUGAACUAAGGCCAACAGAGGAUUGAGCAUCA
B18: chr8:35894604:35894605:-_ENSMUSG00000031529_ENSMUST00000033929|mus_hu|motif|central (ssRNA)
RNA: GGGAGUUCUACAGUCCGACGAUCCUAUAGCAAUGCUUUAUAGAAGACAAACAGCUUAUUUCUAGGCUGUCAGGGACUUCGGGAAUAUUGAUGUUGUUAUUAGAAACAAUCCUCUGUAAUCCAGUCCCAGGUUGAAAUCUGAUCCAACAGAGGAUUGAGCAUCA
B19: 52941175_52943467_2140_CDS_ENSG00000134744_ENST00000257177|human|control|control (ssRNA)
RNA: GGGAGUUCUACAGUCCGACGAUCCCGUGCAACAUUCCUCUUGACUGAAAAUGGAUCUUCAAUGGCUAUUCGCCUUUUAGGCCAGUUUUUAUUUUCUCUUGUUAAAAUAUCUUGUAUCCGUACACAUAUGACAUAUUCCUCCAACAACAGAGGAUUGAGCAUCA
B20: chr8:95500983:95500984:-_ENSG00000164944_ENST00000437199|hu_hu|hu_hu_hu_mus_True|8_68 (ssRNA)
RNA: GGGAGUUCUACAGUCCGACGAUCAGAACACAUCUAUCGAGUAAAGGACCGUACAUGACGGCCUCUAACCACUGCCUCACUAACAAACUUUCCUCUCGAGCCUCCACUGCCGCUAUUUGUACUAGCCCCAGGAAGGUCCAGGCCCAACAGAGGAUUGAGCAUCA
B21: chr8:104447970:104447971:+_ENSG00000164934_ENST00000297579|hu_hu|hu_hu_hu_mus_False|68_108 (ssRNA)
RNA: GGGAGUUCUACAGUCCGACGAUCAUAUACCUCCCUGCUUCGGCUCUUGUCCACAGGAAAGAUUCUAAUAGAUUUAUCAAAGCUGGCAGACACAAAUUCCUUCCCAGUGGGAGAGUAGUCCACAUCAAGUACUGCAGACACGUGCAACAGAGGAUUGAGCAUCA
B22: 21082334_21082454_120_5pUTR_ENSMUSG00000007564_ENSMUST00000007708|mouse|control|control (ssRNA)
RNA: GGGAGUUCUACAGUCCGACGAUCUUUCUAUCAGGCAGCAGCGAGCUCCAGGCGGAAUCCGGGAUCGGGCGGGGCGGUGCCGGGGAAAGGACGCAAAGCGGACGUGGGGGCGCCCGAGCCGCCCUACAGGGGCCGUCCCGCCGCCAACAGAGGAUUGAGCAUCA

What follows are binders tested against T1, UNK ZnF1-3 (assay: nsRBNS (natural sequence RNA bind-n-seq); RBNS binding buffer (assumed for nsRBNS): 25 mM Tris pH 7.5, 150 mM KCl, 3 mM MgCl2, 0.01% Triton X-100, 500 ug/ml BSA, 20 U/ml SUPERase-In, 4 C; UNK is unkempt and MSI1 is Musashi-1; names of the RNAs are library labels; protein concentration not given here; high values mean tight binding).
Binder B1 has a binding signal of 1.16 enrichment R.
Binder B2 has a binding signal of 1.46 enrichment R.
B3 gave a binding signal of 2.45 enrichment R.
B4 was tested, and the binding signal was 0.692 enrichment R.
B5 gave a binding signal of 1.48 enrichment R.
In the case of B6, the binding signal is reported as 0.628 enrichment R.
Work on B7 yielded a binding signal of 0.762 enrichment R.
With B8 the binding signal was 1.1 enrichment R.
In the case of B9, the binding signal is reported as 1.17 enrichment R.
With B10 the binding signal was 0.491 enrichment R.
Binder B11 has a binding signal of 2.47 enrichment R.
B12 was tested, and the binding signal was 0.948 enrichment R.
B13 showed a binding signal of 0.948 enrichment R.
Binder B14 has a binding signal of 0.811 enrichment R.
B15 was tested, and the binding signal was 0.882 enrichment R.
B16 gave a binding signal of 1.52 enrichment R.
Binder B17 has a binding signal of 0.595 enrichment R.
Work on B18 yielded a binding signal of 0.575 enrichment R.
Binder B19 has a binding signal of 0.732 enrichment R.
For B20, the binding signal was 0.925 enrichment R.
In the case of B21, the binding signal is reported as 1.4 enrichment R.
Binder B22 has a binding signal of 0.641 enrichment R.
